# Experimental data: the supplement of paper PMC8728848
# The list shows a part of the results.
# B1: TREM-2 (Mus musculus), Q99NH8 (protein)
# chain: MGPLHQFLLLLITALSQALNTTVLQGMAGQSLRVSCTYDALKHWGRRKAWCRQLGEEGPCQRVVSTHGVWLLAFLKKRNGSTVIADDTLAGTVTITLKNLQAGDAGLYQCQSLRGREAEVLQKVLVEVLEDPLDDQDAGDLWVPEESSSFEGAQVEHSTSRNQETSFPPTSILLLLACVLLSKFLAASILWAVARGRQKPGTPVVRGLDCGQDAGHQLQILTGPGGT
# Key:
# Assay in all cases: glycan array binding signal (z-score within array); higher = stronger binding
# Conditions in all cases: glycan notation: IUPAC condensed, linker removed
# Gal(a1-4)Gal(b1-4)Glc = biological target: Gal(a1-4)Gal(b1-4)Glc
# How it was run: (§1)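 The binding signal is a Z-score computed within each array and averaged over linkers. Arrays of the same protein sequence at different concentrations or buffers were also averaged together. Data originate from 3228 arrays in the Consortium for Functional Glycomics database, kept only where the protein sequence was available.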
# Gal(a1-4)Gal(b1-4)GlcNAc = biological target: Gal(a1-4)Gal(b1-4)GlcNAc
# How it was run: as §1
# Gal(a1-4)GlcNAc = biological target: Gal(a1-4)GlcNAc
# How it was run: as §1
# Gal(a1-6)Glc = biological target: Gal(a1-6)Glc
# How it was run: as §1
# Gal(b1-2)Gal = biological target: Gal(b1-2)Gal
# How it was run: as §1
# Gal(b1-3)Gal = biological target: Gal(b1-3)Gal
# How it was run: as §1
# Gal(b1-3)GalNAc = biological target: Gal(b1-3)GalNAc
# How it was run: as §1
# [1] = biological target: Gal(b1-3)GalNAc(b1-3)Gal(a1-4)Gal(b1-4)Glc
# How it was run: as §1
# [2] = biological target: Gal(b1-3)GalNAc(b1-4)Gal(b1-4)Glc
# How it was run: as §1
# [3] = biological target: Gal(b1-3)GalNAc(b1-4)[Neu5Ac(a2-3)]Gal(b1-4)Glc
# How it was run: as §1
# Gal(b1-3)GlcNAc = biological target: Gal(b1-3)GlcNAc
# How it was run: as §1
# [4] = biological target: Gal(b1-3)GlcNAc(b1-3)Gal(b1-4)Glc
# How it was run: as §1
# [5] = biological target: Gal(b1-3)GlcNAc(b1-3)Gal(b1-4)GlcNAc
# How it was run: as §1
# [6] = biological target: Gal(b1-3)[Fuc(a1-4)]GlcNAc
# How it was run: as §1
# [7] = biological target: Gal(b1-3)[Fuc(a1-4)]GlcNAc(b1-3)Gal(b1-4)GlcNAc
# How it was run: as §1
# [8] = biological target: Gal(b1-3)[Fuc(a1-4)]GlcNAc(b1-3)Gal(b1-4)[Fuc(a1-3)]GlcNAc
# How it was run: as §1
# [9] = biological target: Gal(b1-3)[GlcNAc(b1-6)]GalNAc
# How it was run: as §1
# [10] = biological target: Gal(b1-3)[Neu5Ac(a2-6)]GalNAc
# How it was run: as §1
# [11] = biological target: Gal(b1-3)[Neu5Ac(a2-6)]GlcNAc(b1-6)Gal(b1-4)Glc
# How it was run: as §1
# [12] = biological target: Gal(b1-3)[Neu5Ac(b2-6)]GalNAc
# How it was run: as §1
# [13] = biological target: Gal(b1-4)GalNAc(a1-3)[Fuc(a1-2)]Gal(b1-4)GlcNAc
# How it was run: as §1
# [14] = biological target: Gal(b1-4)GalNAc(b1-3)[Fuc(a1-2)]Gal(b1-4)GlcNAc
# How it was run: as §1
# Gal(b1-4)Glc = biological target: Gal(b1-4)Glc
# How it was run: as §1
# Gal(b1-4)Glc6S = biological target: Gal(b1-4)Glc6S
# How it was run: as §1
# Gal(b1-4)GlcNAc = biological target: Gal(b1-4)GlcNAc
# How it was run: as §1
# [15] = biological target: Gal(b1-4)GlcNAc(b1-2)Man(a1-3)[Gal(b1-4)GlcNAc(b1-2)Man(a1-6)]Man(b1-4)GlcNAc(b1-4)GlcNAc
# How it was run: as §1
# [16] = biological target: Gal(b1-4)GlcNAc(b1-3)Gal(b1-4)Glc
# How it was run: as §1
# [17] = biological target: Gal(b1-4)GlcNAc(b1-3)Gal(b1-4)GlcNAc
# How it was run: as §1
# [18] = biological target: Gal(b1-4)GlcNAc(b1-3)Gal(b1-4)GlcNAc(b1-3)Gal(b1-4)GlcNAc
# How it was run: as §1
# [19] = biological target: Gal(b1-4)GlcNAc(b1-3)Gal(b1-4)[Fuc(a1-3)]GlcNAc(b1-3)Gal(b1-4)[Fuc(a1-3)]GlcNAc
# How it was run: as §1
# [20] = biological target: Gal(b1-4)GlcNAc(b1-3)GalNAc
# How it was run: as §1
# [21] = biological target: Gal(b1-4)GlcNAc(b1-3)[Gal(b1-4)GlcNAc(b1-6)]GalNAc
# How it was run: as §1
# [22] = biological target: Gal(b1-4)GlcNAc(b1-6)Gal(b1-4)GlcNAc(b1-6)GalNAc
# How it was run: as §1
# [23] = biological target: Gal(b1-4)GlcNAc(b1-6)GalNAc
# How it was run: as §1
# [24] = biological target: Gal(b1-4)GlcNAc(b1-6)[Gal(b1-3)]GalNAc
# How it was run: as §1
# Gal3S(b1-3)GalNAc = biological target: Gal3S(b1-3)GalNAc
# How it was run: as §1
# Gal3S(b1-3)GlcNAc = biological target: Gal3S(b1-3)GlcNAc
# How it was run: as §1
# [25] = biological target: Gal3S(b1-3)[Fuc(a1-4)]GlcNAc
# How it was run: as §1
# Gal3S(b1-4)Glc = biological target: Gal3S(b1-4)Glc
# How it was run: as §1
# Gal3S(b1-4)Glc6S = biological target: Gal3S(b1-4)Glc6S
# How it was run: as §1
# Gal3S(b1-4)GlcNAc = biological target: Gal3S(b1-4)GlcNAc
# How it was run: as §1
# Gal3S(b1-4)GlcNAc6S = biological target: Gal3S(b1-4)GlcNAc6S
# How it was run: as §1
# Gal3S6S(b1-4)GlcNAc = biological target: Gal3S6S(b1-4)GlcNAc
# How it was run: as §1
# Gal3S6S(b1-4)GlcNAc6S = biological target: Gal3S6S(b1-4)GlcNAc6S
# How it was run: as §1
# Gal4S(b1-4)GlcNAc = biological target: Gal4S(b1-4)GlcNAc
# How it was run: as §1
binder,measurement,setting,value
B1,glycan array binding signal (z-score),Gal(a1-4)Gal(b1-4)Glc,-0.262
same,glycan array binding signal (z-score),Gal(a1-4)Gal(b1-4)GlcNAc,-0.243
same,glycan array binding signal (z-score),Gal(a1-4)GlcNAc,-0.395
same,glycan array binding signal (z-score),Gal(a1-6)Glc,-0.074
same,glycan array binding signal (z-score),Gal(b1-2)Gal,-0.285
same,glycan array binding signal (z-score),Gal(b1-3)Gal,-0.303
same,glycan array binding signal (z-score),Gal(b1-3)GalNAc,-0.379
same,glycan array binding signal (z-score),[1],-0.352
same,glycan array binding signal (z-score),[2],-0.393
same,glycan array binding signal (z-score),[3],-0.342
same,glycan array binding signal (z-score),Gal(b1-3)GlcNAc,-0.4
same,glycan array binding signal (z-score),[4],-0.276
same,glycan array binding signal (z-score),[5],-0.421
same,glycan array binding signal (z-score),[6],-0.368
same,glycan array binding signal (z-score),[7],-0.235
same,glycan array binding signal (z-score),[8],-0.371
same,glycan array binding signal (z-score),[9],-0.349
same,glycan array binding signal (z-score),[10],-0.257
same,glycan array binding signal (z-score),[11],-0.282
same,glycan array binding signal (z-score),[12],-0.18
same,glycan array binding signal (z-score),[13],-0.214
same,glycan array binding signal (z-score),[14],-0.381
same,glycan array binding signal (z-score),Gal(b1-4)Glc,-0.273
same,glycan array binding signal (z-score),Gal(b1-4)Glc6S,-0.126
same,glycan array binding signal (z-score),Gal(b1-4)GlcNAc,-0.424
same,glycan array binding signal (z-score),[15],-0.308
same,glycan array binding signal (z-score),[16],-0.274
same,glycan array binding signal (z-score),[17],-0.099
same,glycan array binding signal (z-score),[18],-0.287
same,glycan array binding signal (z-score),[19],-0.261
same,glycan array binding signal (z-score),[20],-0.383
same,glycan array binding signal (z-score),[21],-0.331
same,glycan array binding signal (z-score),[22],0.145
same,glycan array binding signal (z-score),[23],-0.412
same,glycan array binding signal (z-score),[24],-0.354
same,glycan array binding signal (z-score),Gal3S(b1-3)GalNAc,-0.148
same,glycan array binding signal (z-score),Gal3S(b1-3)GlcNAc,-0.121
same,glycan array binding signal (z-score),[25],-0.135
same,glycan array binding signal (z-score),Gal3S(b1-4)Glc,-0.053
same,glycan array binding signal (z-score),Gal3S(b1-4)Glc6S,4.24
same,glycan array binding signal (z-score),Gal3S(b1-4)GlcNAc,-0.209
same,glycan array binding signal (z-score),Gal3S(b1-4)GlcNAc6S,4.02
same,glycan array binding signal (z-score),Gal3S6S(b1-4)GlcNAc,4.4
same,glycan array binding signal (z-score),Gal3S6S(b1-4)GlcNAc6S,4.74
same,glycan array binding signal (z-score),Gal4S(b1-4)GlcNAc,-0.111
